Article PMC4336329 (PLoS ONE, 2015)
The campaign covered roughly 310,000 compounds. About 2,200 (0.71%) showed an effect of 50% or more. The effect is printed as a negative number. This is one part of the list.

The molecules below were run against human ether-à-go-go-related gene (hERG) potassium channel (human, UniProt Q12809) (assay: primary screen, population patch clamp on CHO cells stably expressing hERG).
Chain of human ether-à-go-go-related gene (hERG) potassium channel (Q12809 whole entry, looked up): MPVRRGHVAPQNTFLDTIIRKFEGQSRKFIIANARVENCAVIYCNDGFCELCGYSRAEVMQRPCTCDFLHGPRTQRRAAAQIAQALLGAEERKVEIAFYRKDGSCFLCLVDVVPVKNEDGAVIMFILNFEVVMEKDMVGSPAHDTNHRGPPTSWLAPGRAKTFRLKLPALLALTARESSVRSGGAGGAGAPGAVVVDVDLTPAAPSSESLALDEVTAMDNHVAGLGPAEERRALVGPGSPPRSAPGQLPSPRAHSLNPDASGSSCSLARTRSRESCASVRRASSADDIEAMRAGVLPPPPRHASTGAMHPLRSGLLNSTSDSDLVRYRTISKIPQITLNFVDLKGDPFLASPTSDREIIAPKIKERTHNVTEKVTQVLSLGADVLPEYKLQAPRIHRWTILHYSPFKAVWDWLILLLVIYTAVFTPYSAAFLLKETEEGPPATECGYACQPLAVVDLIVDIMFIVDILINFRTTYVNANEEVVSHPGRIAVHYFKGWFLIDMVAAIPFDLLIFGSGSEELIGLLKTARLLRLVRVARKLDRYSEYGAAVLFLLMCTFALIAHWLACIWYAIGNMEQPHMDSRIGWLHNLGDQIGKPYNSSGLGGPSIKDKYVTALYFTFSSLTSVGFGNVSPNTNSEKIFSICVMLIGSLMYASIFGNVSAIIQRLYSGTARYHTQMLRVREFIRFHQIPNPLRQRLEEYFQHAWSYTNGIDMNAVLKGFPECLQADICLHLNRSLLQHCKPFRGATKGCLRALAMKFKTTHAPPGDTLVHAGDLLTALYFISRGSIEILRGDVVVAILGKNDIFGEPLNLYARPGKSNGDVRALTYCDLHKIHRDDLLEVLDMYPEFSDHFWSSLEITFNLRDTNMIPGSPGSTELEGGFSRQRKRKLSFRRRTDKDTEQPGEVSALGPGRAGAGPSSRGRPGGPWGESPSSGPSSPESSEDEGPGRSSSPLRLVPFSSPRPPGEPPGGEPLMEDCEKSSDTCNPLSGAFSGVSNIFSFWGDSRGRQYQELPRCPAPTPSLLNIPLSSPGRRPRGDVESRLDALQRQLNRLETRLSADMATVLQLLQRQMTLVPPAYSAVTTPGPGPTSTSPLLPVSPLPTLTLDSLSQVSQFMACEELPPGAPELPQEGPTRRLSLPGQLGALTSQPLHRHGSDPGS

| Structure (SMILES) | hERG current change (%, negative = inhibition) at 1uM [%] |
| --- | --- |
| COc1ccc(-c2nnn(CC(=O)c3c[nH]c4ccccc34)n2)cc1OC | 5.24 |
| CC(C)Oc1ccccc1/C=N/NC(=O)c1ccc(F)cc1 | 1.35 |
| Cc1ccc(C2(c3ccc(C)cc3)NC(=O)N(Cc3c(C)noc3C)C2=O)cc1 | -2.1 |
| CCOc1ccc(N(C(C)=O)c2nc(C)cc(C)c2C#N)cc1 | 6.86 |
| O=C(CNS(=O)(=O)c1ccccc1)N1CCN(Cc2ccccc2)CC1 | 11.3 |
| Cc1sc2nc(CN3CCN(c4ccc(O)cc4)CC3)[nH]c(=O)c2c1C | 13.1 |
| O=C(CSc1ccsc1[N+](=O)[O-])NCCc1ccccc1 | 3.59 |
| c1ccc(-c2cc(N3CCCCC3)c3ccccc3n2)cc1 | 11.9 |
| CC(C)Cc1nnc(NC(=O)c2cccc(S(=O)(=O)N3CCN(C)CC3)c2)s1 | 11.3 |
| Cc1ccc(/C=C/C(=O)NC(=S)Nc2ccc(S(=O)(=O)Nc3cc(C)on3)cc2)cc1 | 14.1 |
| O=C1C=C(c2cc(C(F)(F)F)cc(C(F)(F)F)c2)C[C@@H](c2ccc3c(c2)OCO3)C1 | 14 |
| COc1ccc2ccccc2c1/C=N/NC(=O)c1ccc([N+](=O)[O-])cc1 | 15.2 |
| COCCn1c(=NC(=O)C2COc3ccccc3O2)sc2cc(S(N)(=O)=O)ccc21 (stereo not drawn) | 3.87 |
| c1ccc(CCNc2cnccn2)cc1 | 15.2 |
| O=C(CNc1ccccc1)c1ccc([N+](=O)[O-])cc1 | 2.78 |
| O=C(C(Cl)c1ccccc1)N1CCOCC1 (stereo not drawn) | 12.3 |
| Cc1ccc(C)c(S(=O)(=O)N2CCN(C(=O)C3CCN(C(=O)c4ccc(F)cc4)CC3)CC2)c1 | -4.34 |
| COc1cccc(NC(=S)N2CCCN(Cc3ccc(F)cc3)C2)c1 | -7.19 |
| COc1cc(CN2CCN(C(O)(c3ccccc3)c3ccccc3)CC2)cc(OC)c1OC.O=C(O)C(=O)O | -9.5 |
| O/N=C/c1ccc(OCc2ccccc2)c(Cl)c1 | 5.06 |
| Cc1cc(C)c2nc3nc(C)cc(C)c3c(N)c2c1 | -41 |
| CCc1cccc(NC(=O)CCCCCC2NC(=O)NC2C)c1 (stereo not drawn) | 14.5 |

| Structure (SMILES) | hERG current change (%, negative = inhibition) at 1uM [%] |
| --- | --- |
| NC(=O)C1=C[C@@H](c2coc3ccccc3c2=O)C[C@@H](OCc2ccc(CO)cc2)O1 | 8.71 |
| C[N+]1(C)CCCC(OC(=O)C(O)(c2ccccc2)c2ccccc2)C1.[Br-] (stereo not drawn) | 13.7 |
| C=COc1ccc(N2C(=O)c3ccccc3OC2C)cc1 (stereo not drawn) | 11.1 |
| OC(COc1ccc(CNCCc2ccc(C(F)(F)F)cc2)cc1)CN1CCCCC1 (stereo not drawn) | 13.9 |
| COCCNC(=O)CSc1ccccc1C(=O)O | 13.4 |
| COc1ccc(N2CCN(C(=O)CNC(=O)c3cn(-c4ccccc4OC)c(=O)c4ccccc34)CC2)cc1 | 0.742 |
| COc1cc(CN2CCCC(CO)(Cc3cccc(Cl)c3)C2)cc2c1OCO2 (stereo not drawn) | -15.4 |
| COc1ccc(/C=N\NC(=O)c2ccc(-c3ccccc3)cc2)cc1COC(C)=O | 10.9 |
| CCOc1cc(S(=O)(=O)N2CCC(Cc3ccccc3)CC2)c(OCC)cc1-n1cnnn1 | 16.5 |
| CCCCc1cc(=O)oc2cc(C)cc(OCC(=O)NCC3CCC(C(=O)O)CC3)c12 (stereo not drawn) | 5.59 |
| O=C(COC(=O)c1ccc(O)cc1O)NC1CCS(=O)(=O)C1 (stereo not drawn) | 6.44 |
| CN1C(=O)C(C(=O)Nc2ccccc2F)c2ccccc21 (stereo not drawn) | -0.379 |
| C/C(=N\Nc1ccccc1)c1c(O)[nH]c(=O)[nH]c1=O | 11.8 |
| COc1cc(NC(=O)c2cccs2)ccc1NC(=O)Cc1ccccc1 | 9.57 |
| O=C(OCC(=O)N1CCN(c2ccccc2)CC1)c1ncc(Cl)c(Cl)c1Cl | 11.2 |
| O=C(Nc1cccc(Cl)c1)Nc1ccnc(-c2cccnc2)n1 | 3.23 |
| Cc1ccccc1N1C(=O)CC1(C#N)c1ccc(OCc2ccccc2)cc1 (stereo not drawn) | 10.4 |
| CC(C)CCN1CCN(Cc2ccc(C#CCCO)cc2)CC1CCO (stereo not drawn) | 5.37 |
| COc1nc(C)nc2c1sc1nc3c(cc12)COC(C)(C)C3 | 17.4 |
| Cc1cc2nc(CSc3ccccc3)cc(=O)n2[nH]1 | 16.1 |
| CC1CCN(Cc2c(O)ccc3c(=O)c(-c4nc5ccccc5s4)c(N)oc23)CC1 | -0.932 |
| Cc1ccc(-c2csc(N3CCN(c4ccc5nc(-c6ccncc6)n(CCN6CCCCC6)c5c4)CC3)n2)cc1 | 17 |

| Structure (SMILES) | hERG current change (%, negative = inhibition) at 1uM [%] |
| --- | --- |
| O=C(c1ccc(F)cc1)N(NC(=O)C(O)(c1ccccc1)c1ccccc1)c1ccccc1 | -1.15 |
| CC(=O)Nc1ccc(N/C=C/C(=O)c2ccco2)cc1 | 10.2 |
| Cc1cccc2cc(CN(Cc3ccc4c(c3)OCO4)Cc3nnnn3C3CCCC3)c(=O)[nH]c12 | 2.01 |
| Cc1cc(C(=O)N/N=C2\CC(=O)c3ccccc32)c(C)n1-c1ccccc1 | 13.3 |
| COc1ccccc1CN1CCCC(N2CCN(c3ccc(F)cc3)CC2)C1 (stereo not drawn) | -21.4 |
| CCc1cc2c(C)ccc(C)c2nc1SCC(=O)Nc1c(C)[nH]c(=O)[nH]c1=O | 4.46 |
| O=C(CCCC1=NS(=O)(=O)c2ccccc2N1)Nc1ccccc1 | -4.42 |
| CC(=O)c1sc(NC(=O)COc2ccc(C)c(C)c2)nc1C | 5.95 |
| CC(C)(C)n1ncc2c(=O)n(Cc3ccc(Cl)c(Cl)c3)cnc21 | 5.72 |
| O=C(NC1CCCCC1)Sc1ccc(Cl)cc1 | 2.09 |
| O=C(COC(=O)c1ccc([N+](=O)[O-])o1)Nc1cccc(S(=O)(=O)N2CCCCC2)c1 | -15.9 |
| Cc1ccccc1-c1noc(CCC(=O)NC2CCCCC2)n1 | 10.6 |
| COc1ccc(/C=N/NC(=O)c2ccc(NC(=O)c3cccc([N+](=O)[O-])c3)cc2)c(C(=O)O)c1OC | 11.3 |
| COC(=O)CSc1nnc2n(C3CCCCC3)c(=O)c3c4c(sc3n12)CCCC4 | 1.02 |
| COc1ccc(C(=O)Nc2ccc3nc(C)sc3c2)cc1OC | 6.38 |
| O=S1(=O)CCN2C(Cc3ccc(SC(F)F)cc3)=CSC2=N1 | -3.49 |
| CCOC(=O)c1c(/N=C/N(C)C)sc(/C=N/Nc2ccccc2)c1-c1ccccc1 | 6.65 |
| CCN1CCN(C(=S)Nc2ccc(Cl)c(Cl)c2)CC1 | 11.9 |
| CC1CCc2cc(F)cc3c(O)c(C(=O)NCC4CCCO4)c(=O)n1c23 (stereo not drawn) | -1.81 |
| COc1ccc(Nc2cccc(Cl)c2)c(C(=O)O)c1 | 3.16 |
| CCOP(=S)(OCC)C(O)CCCCCn1c(=O)c(F)cn(C2CCCO2)c1=O (stereo not drawn) | 8.04 |
| COc1ccc(C(=O)N(C)c2ccccc2C(=O)NCCc2ccccc2)cc1 | 3.87 |

| Structure (SMILES) | hERG current change (%, negative = inhibition) at 1uM [%] |
| --- | --- |
| O=C(Nc1ccncc1)c1sc2ccccc2c1Cl | 11.2 |
| CCCCOc1ccc(C(=O)NCC(=O)NCC2CCCO2)cc1 (stereo not drawn) | 7.53 |
| CCN1C(=O)CC(C(=O)OC)=C1C | 16.2 |
| CC1(C)NC(=O)N(CCOCCOc2ccccc2)C1=O | 16.2 |
| CCCOc1nnnn1-c1ccccc1 | 7.94 |
| Cc1cc(NC(=O)CCC(=O)N(Cc2ccccc2)C(C(=O)NC2CCCC2)c2ccc(C)o2)no1 (stereo not drawn) | 4.27 |
| COc1ccc(-n2nc3c(c2NC(=O)C2CC2)CS(=O)(=O)C3)cc1 | 13.5 |
| COc1ccc(NC(=O)CSCc2ccc(C#N)cc2)c(OC)c1 | 3.47 |
| CCn1nc(C)cc1C(=O)N1CCCC(N2CCN(c3cccc(Cl)c3)CC2)C1 (stereo not drawn) | -3.51 |
| CCCc1nnc(SCC(=O)N2C(C)CCCC2C)n1CC (stereo not drawn) | 5.25 |
| O=C(CSc1ccccn1)Nc1ccc(Cl)c([N+](=O)[O-])c1 | -3.54 |
| CCOc1ccc(N(C(=O)CNC(=O)c2ccco2)C(C(=O)NC2CCCC2)c2ccco2)cc1 (stereo not drawn) | 15.2 |
| CCC1(c2ccc(F)cc2)NC(=O)N(CC(=O)NCC(=O)Nc2cccc(C)c2C)C1=O (stereo not drawn) | -0.296 |
| COc1ccccc1OCC(=O)O/N=C(\N)c1ccccn1 | 11.1 |
| O=C(O)c1cc(S(=O)(=O)NC2CCCc3ccccc32)ccc1O (stereo not drawn) | 11.9 |
| CC1(C)CC(N2CCC(=O)NC2=S)CC(C)(C)N1 | 7.15 |
| CCN(CC(=O)Nc1c(F)cccc1F)C(=O)COc1ccc2c(C)cc(=O)oc2c1 | 1.9 |
| O=c1[nH]c2ccccc2n1C1CCN(CCCC(c2ccc(F)cc2)c2ccc(F)cc2)CC1 | -76.5 |
| Cc1oc(-c2ccccc2F)nc1CN1CCC(C(=O)NCCC2=CCCCC2)CC1 | -51.1 |
| Cn1ncc(Br)c1C(=O)Nc1ccc(Cl)cn1 | 5.06 |
| CC(C)(C)NC(=O)CCN(/N=C/c1ccncc1)C1=NS(=O)(=O)c2ccccc21 | 5.78 |
